# The supplement of paper PMC3334620
# In all, about 33,000 sequences were measured (“E-score (-0.5 to 0.5)”: median about -0.021, highest 2% from about 0.32 on). Some of the results follow.
# Target: T1, Zap1 (UniProt P47043)
# T1 sequence: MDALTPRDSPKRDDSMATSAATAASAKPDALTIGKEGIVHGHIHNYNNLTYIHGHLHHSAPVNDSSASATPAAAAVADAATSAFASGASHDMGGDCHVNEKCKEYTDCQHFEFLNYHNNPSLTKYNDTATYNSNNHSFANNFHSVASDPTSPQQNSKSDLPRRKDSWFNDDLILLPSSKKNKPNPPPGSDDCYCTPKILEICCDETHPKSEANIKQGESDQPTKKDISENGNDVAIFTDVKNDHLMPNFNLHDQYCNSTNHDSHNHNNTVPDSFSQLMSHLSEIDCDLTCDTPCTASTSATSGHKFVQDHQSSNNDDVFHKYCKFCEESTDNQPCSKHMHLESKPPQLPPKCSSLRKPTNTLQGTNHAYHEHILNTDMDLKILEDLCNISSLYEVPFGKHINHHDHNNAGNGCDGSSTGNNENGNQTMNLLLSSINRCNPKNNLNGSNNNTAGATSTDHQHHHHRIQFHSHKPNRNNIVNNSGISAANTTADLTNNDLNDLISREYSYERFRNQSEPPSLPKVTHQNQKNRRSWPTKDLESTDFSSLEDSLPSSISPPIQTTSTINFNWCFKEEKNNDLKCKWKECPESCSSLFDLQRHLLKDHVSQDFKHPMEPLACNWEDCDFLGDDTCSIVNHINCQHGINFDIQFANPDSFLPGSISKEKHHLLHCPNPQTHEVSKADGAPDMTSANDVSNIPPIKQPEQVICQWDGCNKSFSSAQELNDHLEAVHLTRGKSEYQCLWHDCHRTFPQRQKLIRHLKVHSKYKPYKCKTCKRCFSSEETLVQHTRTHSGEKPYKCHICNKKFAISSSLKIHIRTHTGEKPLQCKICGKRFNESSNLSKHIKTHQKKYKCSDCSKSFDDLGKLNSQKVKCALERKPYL
# Test: PBM E-score (8-mer binding enrichment) (E-score (-0.5 to 0.5)); higher = stronger / more preferred TF binding; most listed sequences are background and not binding sites
# Settings: protein concentration: 200 nM; construct: GST-full length
# Description: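 Universal 'all 10-mer' protein binding microarrays (Agilent AMADID 015681) probed with GST-tagged S. cerevisiae TFs (full-length or DBD) made by in vitro transcription/translation (PURExpress), about 100-200 nM. Bound TF was detected with fluorescent anti-GST. Each ungapped 8-mer (which stands for itself and its reverse complement) is scored by the PBM enrichment score (E-score), a modified Wilcoxon-Mann-Whitney statistic from -0.5 to +0.5, computed with the Universal PBM Analysis Suite. Scale: above 0.35 generally sequence-specific binding.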
row,Sequence,PBM E-score
1,GTAATGAA,0.0191
2,AAACCATT,0.197
3,GATTGTCC,0.0461
4,GCTCACGA,-0.129
5,CCGCCGGA,0.00634
6,AACCAAGC,0.106
7,ATGCTGTC,-0.167
8,ATGCGTGA,0.0522
9,ACAGTTAC,0.0755
10,AACCACGC,0.231
11,CTATGGTA,0.134
12,ACAATATC,0.0393
13,CGGTCGGA,-0.0102
14,AGTGCGTC,-0.233
15,CGCGTACA,-0.0777
16,GACCATAA,0.287
17,TAAAGGAA,0.00829
18,CGTAGACC,-0.109
19,AGCGTTCG,-0.168
20,ATAGGGCG,-0.263
21,ATAAGCCA,0.0432
22,ACAGGTGG,-0.0999
23,CGCCCACA,0.134
24,AAGGTAGC,0.307
25,CCTGCACG,0.00093

row,Sequence,PBM E-score
1,ATGCTACA,-0.184
2,CTATTGAC,-0.0199
3,CGTAAGAA,-0.0668
4,AGAGCTGC,-0.365
5,GATAATCC,-0.152
6,AGTATAGC,-0.169
7,CGTCGTGA,-0.0856
8,ACTAACGA,-0.0161
9,GCCCCGCC,0.124
10,CCTTCATA,0.102
11,AGGGGACT,0.00277
12,GTGCGCAA,-0.0569
13,ACCTTTGG,0.236
14,GAGTTAGC,0.0462
15,TCCCTCGA,-0.0721
16,CGAACGCG,-0.124
17,GCAACTAA,0.234
18,CGTTTCGC,0.0229
19,AGTAAACA,0.0727
20,CAAGAAGC,-0.0179
21,AGGCCTCA,-0.0843
22,GTCGTCTA,-0.0759
23,CCCCGGAC,-0.0901
24,CACCCGGA,0.235
25,CCACTCAG,-0.133

row,Sequence,PBM E-score
1,CTTACAGC,-0.11
2,CAACGGAG,-0.226
3,ATCGCCCC,-0.134
4,CTTACTAC,-0.0448
5,GGAGGGAC,-0.12
6,CAGGACTG,-0.142
7,ACTAGTGC,-0.111
8,ACACTAAC,0.124
9,CACACCCA,0.0555
10,ATTTTTGG,0.0429
11,CGATAGAC,-0.0768
12,GTCTCCAA,-0.0169
13,CCGACGTA,-0.166
14,CCTCCTAC,-0.0299
15,GTACTAAA,0.127
16,ACGCACCC,-0.0807
17,CTACGTTC,-0.187
18,CTCTGTAC,-0.139
19,ATCAGAAT,0.0899
20,AGCCCGCC,-0.207
21,GAACGCTC,-0.342
22,AGCAATCA,0.0665
23,ATATGACC,0.245
24,CTTCATGA,0.134
25,CAGCATGG,-0.00544

row,Sequence,PBM E-score
1,GAAGCCCC,-0.272
2,GAAATACC,0.158
3,AGGCAGGG,-0.14
4,AGGAGAGG,-0.195
5,CAGCGAGC,-0.0353
6,ATAGGAAT,0.0437
7,CCTATTGC,-0.0524
8,AAATACCT,0.128
9,AAATTCTC,-0.0791
10,GCATGGGA,0.00375
11,GATCCCAA,0.0124
12,CGACCTGA,0.11
13,GCTGTATA,-0.179
14,ACACTGGA,-0.0566
15,AACGCCGT,-0.093
16,AATCAGCG,0.099
17,GACATACA,0.0466
18,ACTAACTG,0.126
19,CATTTGTC,0.00204
20,GTAGAGGA,-0.274
21,CATGAGGG,0.0852
22,GCCAGAGA,-0.0759
23,ACCCTCGG,0.329
24,CATACTGA,0.00678
25,GAAGGTTA,0.437

row,Sequence,PBM E-score
1,CCCTTGAG,0.33
2,GCCACTGA,0.0415
3,ATAACTTC,0.158
4,AAGGAGGA,-0.291
5,GAGCCTGA,-0.248
6,GGAAAATA,0.0887
7,CCATAACG,0.00872
8,AACGTCTA,-0.0331
9,AGAGAAGG,-0.204
10,ATTGAATC,-0.158
11,AGACTAAG,-0.0256
12,ATTTCACG,0.0742
13,GAGCTTGA,-0.203
14,CGGAACCC,0.326
15,ACCTGCTA,0.0809
16,ACTTATCC,0.0364
17,AGTTGAGG,0.137
18,GCCTGGAC,-0.195
19,AAGGTTTC,0.206
20,AAATACTC,-0.0244
21,GCGTCTAA,-0.113
22,ACCTACCA,0.126
23,CGAGAGGC,-0.187
24,AGGTCGCG,0.238
25,CGCTAGAA,0.019

row,Sequence,PBM E-score
1,ATGGCGGG,-0.0345
2,CGGCAGCA,-0.227
3,TCGTGGCA,-0.207
4,GCGCTTAA,-0.0418
5,CGACTTCC,-0.272
6,ATGGCAGG,-0.0316
7,GTCCGCAA,0.121
8,GCCTTTCA,-0.0871
9,GGAGTCAC,-0.113
10,AGACAAGG,-0.0613
11,ATGGGCGA,-0.12
12,ACTATGAA,-0.0246
13,CGCAGCTC,-0.176
14,AGATGCAA,-0.0256
15,AACAGCAG,0.0312
16,AACAGACA,0.0533
17,CAATTCCG,-0.00437
18,GACAGACC,0.00176
19,ATCACGAC,-0.103
20,GCACTTGA,-0.119
21,CGTATCAA,-0.0422
22,AACAATAG,-0.032
23,CTGATCAG,0.103
24,AGATTCTC,-0.0823
25,ACACCTTA,0.236

row,Sequence,PBM E-score
1,ATGCGCTC,-0.119
2,TGATTCCA,0.0434
3,AATGCAGG,-0.0578
4,ACATAAGA,-0.0266
5,ATTGTCGA,0.019
6,CACATGTC,-0.0103
7,ACTACGAT,0.0887
8,AGTGCGCA,-0.0535
9,CAGGAGCC,-0.164
10,ATGCGCCG,-0.221
11,AGGTTGGC,-0.0587
12,GTGGCACA,-0.203
13,AGTGTACC,0.0741
14,TAGCCCGA,-0.024
15,CCGATGAA,0.0704
16,CTTTTTTC,0.147
17,GCCGGCGC,-0.063
18,CTGGTTCC,0.0559
19,GATCCTGC,-0.023
20,AGAGTCCT,-0.175
21,TACTGCCA,0.0605
22,CCCGAAGC,-0.233
23,GACCCAGA,0.11
24,CACTTATG,0.0769
25,GCGCCAAC,-0.0397

row,Sequence,PBM E-score
1,ATTAAAAC,0.186
2,CGCGGGAG,-0.239
3,TCTTCTCA,-0.0162
4,ACCAGAGT,0.0585
5,AAGATCCC,-0.17
6,AGGCGATC,-0.235
7,ACCGCGAT,0.131
8,ATTGGTGA,-0.0286
9,CGTGGTGC,-0.0971
10,GGATGAGA,-0.0656
11,CCACATGC,0.146
12,GAGTTCAA,0.00121
13,ATTACACA,0.209
14,AAAGATTG,-0.08
15,CGGTTTGC,0.00586
16,ACTTAGGG,0.281
17,CTGAATCC,-0.112
18,GGGCGGCA,-0.166
19,AGGAATCG,-0.054
20,CCGAGCGG,0.077
21,AGCCTCAG,-0.118
22,GTCATTTA,0.0508
23,CATGGTGC,-0.147
24,AGGGTTTG,0.292
25,AAGTTTAG,0.023

row,Sequence,PBM E-score
1,CACCGCGC,-0.0615
2,ATCACACG,0.056
3,CGGTTTGA,0.084
4,ATTCTGAA,0.13
5,CAGGAGCA,-0.15
6,CATCGTCC,-0.119
7,GCGGCCGA,-0.142
8,AAGACTGC,-0.193
9,ACACAGCA,0.131
10,AGCGACTG,0.117
11,TAAATAGA,-0.0602
12,CAAAAATG,0.0301
13,CCTGACGC,-0.219
14,AAAGGTTG,0.336
15,AGGACAGG,-0.1
16,CTATTTGA,0.0912
17,GAAGATAC,-0.134
18,TAATGTCA,-0.0255
19,CCCACCCA,0.323
